# Data as given in PubChem BioAssay (NCI).
# Several values for one entry are separate records, joined by “and”; a condition that tells them apart may be missing. Identical values can stand only once.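 48-hour exposure; five concentrations; linearly interpolated endpoints. At the GI50, growth is halved. TGI: concentration producing complete growth inhibition.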
# System: NCI-H322M lung
# Experiment: inhibition of tumour cell growth, NCI panel, 48 h
SMILES,TGI,GI50
C=C[C@]1(C)CC[C@]2(C)C(CC[C@@]3(C)C2C[C@H](O)[C@H](O)[C@@]3(C)O)C1 (some centres not stated),> 100 µM,
Cc1cnc(Cl)nc1C(C#N)c1nc2ccccc2n1C (configuration not stated),> 100 µM,
CC1=NN(c2ccc(C)cc2)C2(C1)SCC(=O)N2c1nc2ccccc2s1 (configuration not stated),> 100 µM,
O=C1c2c(O)cccc2C(C(=O)CCCCC(=O)C2c3cccc(O)c3C(=O)c3c(O)cccc32)c2cccc(O)c21,3.28 µM and 6.39 µM,1450 nM
O=C1CSC2(CC(/C=C/C=C/c3ccccc3)=NN2c2cccc(S(=O)(=O)O)c2)N1c1nc2ccccc2s1 (configuration not stated),> 100 µM,
CCN(CC)CCC(=O)Nc1ccc(Cn2nnc3c2C(=O)c2nnn(Cc4ccc(NC(=O)CCN(CC)CC)cc4)c2C3=O)cc1,1.51 µM,464 nM
C=C1C(=O)O[C@H]2C1[C@H](OC(=O)/C(C)=C\COC(C)=O)C[C@]1(CO1)[C@@H]1[C@H](O)[C@H]3O[C@@]3(C)[C@@H]12 (some centres not stated),> 100 µM,
CCCCN(CCCC)C(=NCc1ccccc1)NC#N,> 100 µM,
CC(=O)[CH-]C(=O)c1ccccc1.CC(=O)[CH-]C(=O)c1ccccc1.[O]=[U+2]=[O],> 100 µM,44600 nM
O=c1c2ccccc2nc(-c2ccccc2)n1NCC1(O)OCC(O)C(O)C1O (configuration not stated),> 100 µM,
CC(=O)N(C(C)=O)n1c(Cc2ccc(Cl)cc2)nn(C(C)=O)c1=O,> 100 µM,
CC(=O)NC1C(OCc2ccccc2)OC(COC(=O)CCCCCCCCCCNC(=O)c2cccc3c(=O)c4ccccc4[nH]c23)C(O)C1OC(C)C(=O)NC(C)C(=O)NC(CCC(N)=O)C(N)=O (configuration not stated),> 100 µM,
CN1C(=O)c2cc(Cl)nc3c(NC(=O)c4cccc(Cl)c4)c(Cl)c(NC(=O)c4cccc(Cl)c4)c1c23,12 µM,2950 nM
COC(=O)[C@H](Cc1ccccc1)NC(=O)c1csc([C@@H](C[C@H](C(C)C)N(C)C(=O)[C@@H](NC(=O)[C@H]2CCCCN2C)C2CC2)OC(C)=O)n1,> 25 µM,151 nM
CN1CCCC1c1cccnc1.O=C(O)c1ccccc1O.O=C([O-])c1ccccc1[OH2+].O=C([O-])c1ccccc1[OH2+].O=C([O-])c1ccccc1[OH2+].[Mn+2] (configuration not stated),> 100 µM,> 100000 nM
O=C1/C(=C/c2cccc(Oc3ccccc3)c2)N=C(c2ccccc2)N1c1nc2ccc(Sc3ccccc3)cc2[nH]1,> 100 µM,
Cc1ccc(NCSc2ccc(Cl)cc2)cc1,> 100 µM,75300 nM
CCCCCCCCCCCCCCCCOCC(CC(F)(F)P(=O)(O)O)OC(C)=O (configuration not stated),> 50 µM,
CC1(C)N=C(N)N=C(N)N1c1ccc(OCC(=O)Nc2cccc(S(=O)(=O)F)c2)c(Cl)c1,> 87 µM,
O=C1CCC2(CC1)Cc1ccccc1C2O (configuration not stated),> 100 µM,
O=C(/C=C/N1CCN(c2cccc(C(F)(F)F)c2)CC1)c1ccc(Cl)cc1Cl,68.4 µM,26600 nM
CCCCCCCCCCCCC(=O)NCC(=O)NC(Cc1ccccc1)C(=O)Oc1ccc([N+](=O)[O-])cc1 (configuration not stated),> 100 µM,
Cc1cc(NS(=O)(=O)c2ccc(Nc3c4ccccc4nc4c(C(=O)NCCN(C)C)ccc(Cl)c34)cc2)no1,18.2 µM,
O=C(CCCCCCCCCCc1ccccc1)c1c(O)cccc1O,96.3 µM,
CCCCCCCCCCCCOC1C(COCCN2CCCC2)OC2OC(C)(C)OC21 (configuration not stated),23.2 µM,

SMILES,TGI,GI50
Cn1c(=O)n(-c2ccc(C(C)(C)C#N)cc2)c2c3cc(-c4cnc5ccccc5c4)ccc3ncc21,,12.8 nM and 6.28 nM and < 10 nM
CCCC/C(=N\N=C(N)N)c1ccc(F)cc1,19 µM,5910 nM
Cc1ccc(S(=O)(=O)Nn2c(-c3ccccc3)c(C#N)c(-c3ccc([N+](=O)[O-])cc3)c(C#N)c2=O)cc1,> 100 µM,
CC(C)=CCN(N=O)c1ncnc2nc[nH]c12,> 100 µM,
CCC1OCCN1C(C)C (configuration not stated),> 100 µM,
Cc1ccc(-c2cc(-c3ccc(Cl)cc3)nc(/N=C3\C(=O)N(CN4CCCCC4)c4ccc(Cl)cc43)n2)cc1,> 100 µM,
CC1(C)CC(=O)C(/C=N/c2nc(-c3ccc(Br)cc3)cs2)=C(O)C1,> 100 µM,
COc1ccccc1C1C(C#N)=C(N)OC2=C1C(=O)CCC2 (configuration not stated),> 100 µM,> 100000 nM
COc1ccc([Se]c2ccc(OC)cc2OC)c(OC)c1,> 100 µM,
O=C(Cc1nc2ccc(C(=O)c3ccccc3)cc2[nH]c1=O)C(=O)Nc1ccccc1[N+](=O)[O-],> 100 µM,
Cc1nnc([S-])s1.[Au+].c1ccc([PH+](c2ccccc2)c2ccccc2)cc1,3.05 µM,1680 nM
O=c1oc2ccccc2cc1-c1nc2ccc([N+](=O)[O-])cc2o1,> 100 µM,
CSc1c(C(C)=O)c(O)n(-c2ccc(Cl)cc2)c(=O)c1C#N,> 100 µM,
Cc1ncc([N+](=O)[O-])n1CCN=[N+]=[N-],> 100 µM,
CC1=NN(C(=O)CC(=O)Nc2cccc(Cl)c2)C(=O)C1N=Nc1ccc(S(N)(=O)=O)cc1 (configuration not stated),> 100 µM,
CN(C)c1ccc(-c2nc(-c3cc4c(ccc5ccccc54)oc3=O)cs2)cc1,> 100 µM,
COc1cc(S(=O)(=O)Nc2nc(-c3ccc(N4C(=O)/C(=C/c5ccccc5)N=C4c4ccccc4)cc3)cs2)ccc1Cl,> 100 µM,
O=CNc1cccc2c3c([nH]c12)CCCCCC3,> 100 µM,
Cc1cccc(NC(=O)CC(=O)N2N=C(N3c4ccccc4Sc4ccccc43)CC2c2ccccc2)c1 (configuration not stated),> 100 µM,
CC1=NNC(N)=N/C1=C/C(Sc1ccc(Cl)cc1)c1cccs1 (configuration not stated),88.6 µM,
CN(C)CCCn1c2ccccc2c2cnccc21,> 100 µM,
CN1CC2(CCCCC2)C(O)C12C=CCCC2 (configuration not stated),> 100 µM,
O=C1c2cccnc2C(=O)c2c1c(C(=O)OCCCN1CCOCC1)c1ccccn21,1.62 µM,< 11.1 nM
CC1Cc2c(N(C)C)ncnc2N(C)c2ccc(Cl)cc21 (configuration not stated),> 100 µM,5130 nM
O=C(Cn1c2ccc(Br)cc2c2nc3ccccc3nc21)NC1CCCCC1,> 100 µM,

SMILES,TGI,GI50
COc1ccc2c(c1O)[C@@]13C=C(O)C(=O)C=C1[C@@H](C2)N(C)CC3,> 100 µM,
Oc1c2cccc1Cc1cccc3c1OCCOCCOCCOCCOc1c(cccc1Cc1cccc(c1O)C3)C2,> 100 µM,
COC(=O)c1cc(Nc2ccc(O)c3c2C(=O)c2c([N+](=O)[O-])ccc(O)c2C3=O)cc(C(=O)OC)c1,12.3 µM,3460 nM
CCCCCCCCCCCCCCCC[N+]1(CC)CCCC1,4.36 µM,1750 nM
O=C1C/C(=C\O)C(=O)c2ccccc2N1,> 100 µM,
COc1ccc(/C=C\c2cc(OC)c(OC)c(OC)c2)cc1OP(=O)(O)O,> 100 µM and 50 µM and > 88.8 µM,
CO[C@H]1C=C[C@]23c4cc5c(cc4CN(CC2O)[C@@H]3C1)OCO5 (some centres not stated),34.1 µM,
Brc1ccc2c(c1)C1(c3cc(Br)ccc3-2)c2cc(Br)ccc2-c2ccc(Br)cc21,> 100 µM,
COC(=O)C12CC(C3CC31)C1CC12 (configuration not stated),> 100 µM,
CC(C)(C)n1cc(-c2ccnc(NCCNS(=O)(=O)c3ccc(Br)cc3)c2)c(-c2cccc(O)c2)n1,6.36 µM,2270 nM
CCCCC[C@H](O)[C@H](C)C=C1SCCCS1,> 100 µM,
CC(CS(=O)(=O)Cc1ccccc1)C(N)=O (configuration not stated),> 100 µM,
CCOC(=O)c1cnc2[nH]c(=O)c3ccccc3n2c1=O,> 100 µM,
COc1ccc(S(=O)(=O)N/N=C/C(=O)O)cc1,> 1250 µM,
N#CC1c2ccccc2-c2ccccc2N1C(=O)c1ccccc1 (configuration not stated),> 57.6 µM,3430 nM
O=C1c2ccccc2NC2C(O)c3ccccc3N12 (configuration not stated),> 100 µM,
O=C(N[C@@H]1CCCc2ccccc21)[C@H](CCC(=O)N1CCN(C2CCCCC2)CC1)N1C(=O)[C@@H](N2C(=O)OC[C@@H]2c2ccccc2)[C@H]1/C=C/c1ccccc1,52.7 µM,1330 nM
CC(CC(=O)O)(CC(=O)O)C(=O)O,> 100 µM,
Brc1ccc(N2C[N+](c3ccc(Br)cc3)=NC(c3ccccc3)=N2)cc1,35 µM and > 100 µM,
CCCCCCCCCCCCCCCCP(=O)(O)OP(=O)(O)OCC1OC(n2ccc(N)nc2=O)C(O)C1O (configuration not stated),> 100 µM,
O=C1OCC(C(=O)c2cccc(O)c2)C1=O (configuration not stated),> 100 µM,
CCN(CC)CCOc1ccc(/C=C2\C[C@H]3[C@@H]4CC=C5C[C@@H](OC(C)=O)CC[C@]5(C)[C@H]4CC[C@]3(C)[C@H]2OC(C)=O)cc1OC,19.6 µM,10900 nM
CN(C)c1ccc(C(=NNC(=O)c2cc3ccccc3[nH]2)c2ccc(N(C)C)cc2)cc1,> 100 µM,
COc1ccc(CNc2nc(NCc3ccc(OC)cc3)nc(NC3CCCCC3)n2)cc1,4.89 µM,
CC1OC(=O)N(CCCC=C2SCCCS2)C1=O (configuration not stated),> 100 µM,

SMILES,TGI,GI50
Cn1c(=O)c2c3oc(=O)cc(O)c3c(=O)n3c4ccccc4n(c1=O)c23,> 100 µM,
O=C1CCC2(CCC(=O)NC2=O)C(=O)N1,> 100 µM,
O=C1c2cc(Cl)ccc2-n2c(noc2=O)C2CSCN12 (configuration not stated),> 100 µM,
Cc1c(C(C)C)cc(OCCO)cc1C(C)C,> 100 µM,
COc1ccccc1C(=O)c1c(N2CCCCC2)c(=O)c1=O,> 100 µM,
COC(=O)/C(=N\NC(=O)c1ccccc1O)C(C#N)c1ccc(Cl)cc1 (configuration not stated),> 100 µM,
NC1=NS(=O)(=O)N=C(N)C1=Cc1ccc([N+](=O)[O-])o1,> 100 µM,
CCCCc1ccc2[n+](c1)C(C(=O)OCC)=PC2 (configuration not stated),> 100 µM,
O=C(c1cccs1)N(C(=S)N1CCN(c2ccccc2)CC1)c1ccccc1,> 100 µM,
COc1ccc(C2=CC(c3cc(OC)c(OC)c(OC)c3)n3ncnc3N2)cc1 (configuration not stated),> 100 µM,95.3 nM
COc1ccccc1Cn1cc2c(c1)-c1oncc1CC2,> 84.5 µM,493 nM
COc1cc2ccn3c4cc(OC)c(OC)cc4cc3c2cc1OC,> 100 µM,
OC(CC(c1ccccc1)c1ccc(Cl)cc1)c1ccc(Cl)cc1 (configuration not stated),> 100 µM,
COc1cccc(-c2nn(-c3ccccc3)cc2-c2ccnc(NCCNC(=O)Nc3ccc(Cl)c(Cl)c3)c2)c1,10.2 µM,2240 nM
c1ccc2c(c1)CC1c3[nH]c4ccccc4c3CCN21 (configuration not stated),> 10 µM,
O=c1oc(-c2ccc(O)c(O)c2)cc2cc(O)cc(O)c12,> 100 µM,32000 nM
Cc1nnc2n1N=C(CC(=O)c1ccc(O)cc1O)CN2N,> 100 µM,
NC(Cc1nn[nH]n1)C(=O)O (configuration not stated),> 100 µM,
Cc1ccc([P+](Cc2ccc([N+](=O)[O-])cc2)(c2ccc(C)cc2)c2ccc(C)cc2)cc1,27 µM,12200 nM
O=C1[C@H]2C(c3ccccc3)=NN(C(=O)c3ccccc3)[C@H]2C(=O)N1c1ccccc1,> 100 µM,
N#Cc1c(N)c(-c2ccc(Cl)cc2)c(F)c2ccccc12,> 100 µM,
Cn1c(N)c(/C=N/NC(=O)CC#N)c(=O)n(C)c1=O,> 100 µM,
CCOC(=O)c1cc(-c2ccc(OC)c(OC)c2)c[nH]1,> 10 µM,
